This experiment addresses T1, human PD-L1 (human, UniProt Q9NZQ7).
T1 construct: full-length surface expression construct on transfected Expi293F cells; also called CD274; B7-H1
Description: flow cytometry on transfected cells.

T1 sequence (Q9NZQ7 19-290): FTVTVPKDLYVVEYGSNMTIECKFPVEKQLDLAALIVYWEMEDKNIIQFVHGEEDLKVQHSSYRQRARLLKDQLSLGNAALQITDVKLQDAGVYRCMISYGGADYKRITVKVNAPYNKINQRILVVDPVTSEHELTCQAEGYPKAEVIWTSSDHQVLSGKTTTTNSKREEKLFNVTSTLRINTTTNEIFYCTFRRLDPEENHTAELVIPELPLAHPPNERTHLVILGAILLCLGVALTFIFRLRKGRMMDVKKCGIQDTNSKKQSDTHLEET

B1: Domain 1: ICOSL WT / Domain 2: CD80 WT / Fc (Fc fusion)
chain: DTQEKEVRAMVGSDVELSCACPEGSRFDLNDVYVYWQTSESKTVVTYHIPQNSSLENVDSRYRNRALMSPAGMLRGDFSLRLFNVTPQDEQKFHCLVLSQSLGFQEVLSVEVTLHVAANFSVGGGGSGGGGSGGGGSVIHVTKEVKEVATLSCGHNVSVEELAQTRIYWQKEKKMVLTMMSGDMNIWPEYKNRTIFDITNNLSIVILALRPSDEGTYECVVLKYEKDAFKREHLAEVTLSVKADFPTPSISDFEIPGGGGSGGGGSAAA[… human IgG1 Fc with C220S R292C N297G V302C (EU numbers) …]
For B1, the MFI was found to be 2970 MFI.

B2: Domain 1: CD80 WT / Domain 2: CD80 WT / Fc (Fc fusion)
chain: VIHVTKEVKEVATLSCGHNVSVEELAQTRIYWQKEKKMVLTMMSGDMNIWPEYKNRTIFDITNNLSIVILALRPSDEGTYECVVLKYEKDAFKREHLAEVTLSVKADFPTPSISDFEIPGGGGSGGGGSGGGGSVIHVTKEVKEVATLSCGHNVSVEELAQTRIYWQKEKKMVLTMMSGDMNIWPEYKNRTIFDITNNLSIVILALRPSDEGTYECVVLKYEKDAFKREHLAEVTLSVKADFPTPSISDFEIPGGGGSGGGGSAAA[… human IgG1 Fc with C220S R292C N297G V302C (EU numbers) …]
B2 yielded an MFI of 6300 MFI.

B3: Domain 1: CD80 WT / Domain 2: CD86 WT / Fc (Fc fusion)
chain: VIHVTKEVKEVATLSCGHNVSVEELAQTRIYWQKEKKMVLTMMSGDMNIWPEYKNRTIFDITNNLSIVILALRPSDEGTYECVVLKYEKDAFKREHLAEVTLSVKADFPTPSISDFEIPGGGGSGGGGSGGGGSAPLKIQAYFNETADLPCQFANSQNQSLSELVVFWQDQENLVLNEVYLGKEKFDSVHSKYMGRTSFDSDSWTLRLHNLQIKDKGLYQCIIHHKKPTGMIRIHQMNSELSVLANFSQPEIVPISNITEGGGGSGGGGSAAA[… human IgG1 Fc with C220S R292C N297G V302C (EU numbers) …]
Molecule B3 gave an MFI of 2080 MFI.
